Laboratory results from PubChem BioAssay AID1240 (Sanford-Burnham Center for Chemical Genomics, 2008).
Screen size: about 50,000 compounds; about 800 (1.6%) showed an effect of 50% or more. The list shows a part of the results.

Target: Bcl-2-like protein 10 (Homo sapiens) (UniProt Q9HD36)
Experiment: TR3 peptide-Bcl-B binding displacers, biochemical primary FP assay, phenotype converters (AID 1240);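 also: 0% = Bcl-B with tracer peptide and DMSO and 100% = tracer peptide lacking Bcl-B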
Details: GST-Bcl-B / FITC-TR3 peptide fluorescence polarization; stronger effect = higher value; compound at 3.75 mg/L

UniProt Q9HD36, sequence (Q9HD36 whole entry, looked up): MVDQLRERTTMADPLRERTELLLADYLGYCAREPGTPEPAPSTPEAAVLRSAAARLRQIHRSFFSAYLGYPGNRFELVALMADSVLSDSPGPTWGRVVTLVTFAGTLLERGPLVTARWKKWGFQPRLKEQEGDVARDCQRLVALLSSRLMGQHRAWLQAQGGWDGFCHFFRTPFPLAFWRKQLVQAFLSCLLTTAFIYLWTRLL

Row | Structure (SMILES) | displacement [%]
1 | CC1=C(C#N)c2nc(N)c(C#N)c(C)c2/C1=C\c1ccc(Cl)c(Cl)c1 | 7.1
2 | COc1ccc(C)cc1NC(=O)Cc1ccccc1[N+](=O)[O-] | 4.1
3 | CC1(C)Cc2c(sc3nc(SCC(N)=O)n(CCc4ccccc4)c(=O)c23)CO1 | -7.7
4 | c1ccc(Nc2ccc3nc4ccccc4nc3c2)cc1 | 8.9
5 | Cc1cccc(OCCNc2nc3c(c(=O)n(C)c(=O)n3C)n2C)c1 | 0.7
6 | CCOc1ccc(-c2cc(C)n3nc(C(N)=O)cc3n2)cc1 | 4.8
7 | O=C(COc1ccc(Cl)cc1)N1CCN(C(=O)c2cccs2)CC1 | -10.4
8 | CN1C(=O)NC(=O)/C(=C\c2ccc(Cl)cc2)C1=O | 1.4
9 | CCOC(=O)c1c(NC(=O)Cc2ccc(Cl)cc2)sc(C(=O)Nc2ccccc2)c1C | -5.3
10 | COc1ccc(N(CC(=O)Nc2ccc3ccccc3c2)S(=O)(=O)c2ccc(C)cc2)c(OC)c1 | -1
11 | CN(CCCC(=O)O)S(=O)(=O)c1ccc2c(c1)Cc1cc(S(=O)(=O)N(C)CCCC(=O)O)ccc1-2 | -0.2
12 | O=c1oc(-c2ccccc2F)nc2c1cnn2-c1ccccc1 | 3.8
13 | CCOc1ccc(C(=O)N2CCN(Cc3ccccc3)CC2)cc1OCC | 3
14 | COc1ccc(/C=C2\C=C(c3ccc(Cl)cc3)OC2=O)cc1[N+](=O)[O-] | 36.4
15 | Cc1cccc(C(=O)Nc2cc(-c3ccc(F)cc3)[nH]n2)c1 | 9.1
16 | Cc1n[nH]c(C)c1CCC(=O)N/N=C/c1ccc(O)cc1O | -18.3
17 | O=C(/C=C/c1ccco1)Nc1ncc(Cc2cccc(Cl)c2)s1 | -25.2
18 | Cc1cccc(NC(=O)CSc2nccn2C)c1 | 8.2
19 | c1ccc(-c2noc(C(c3ccccc3)c3ccccc3)n2)cc1 | 12.7
20 | Cc1ccc(S(=O)(=O)Nc2ccc(N3CCOCC3)cc2)cc1[N+](=O)[O-] | 2.2
21 | Cc1ccc(C)c(OCCN2CCCCC2)c1 | 3.9
22 | Cc1ccc(C)c(NC(=O)/C=C/c2ccc(C)o2)c1 | 10.2
23 | Cc1ccccc1NC(=O)CCCC(=O)OCC(F)(F)C(F)F | 6.4
24 | CCOc1ccc(N(CC(=O)NCCCOC)S(C)(=O)=O)cc1 | 7.5

Row | Structure (SMILES) | displacement [%]
25 | CC(=O)c1ccc2c(c1)C1C=CCC1C(c1cccc([N+](=O)[O-])c1)N2 (stereo unspecified) | 17.4
26 | Cc1onc(-c2ccccc2Cl)c1C(=O)N1C(C)CCCC1C (stereo unspecified) | 0.8
27 | Cc1ccccc1-n1c(C)cc(/C=N/NC(=O)CN2CCOCC2)c1C | -22.2
28 | O=C1/C(=C\c2cn(Cc3ccccc3F)c3ccccc23)SC(=S)N1c1ccc([N+](=O)[O-])cc1 | 28.7
29 | N=c1sc(Cc2ccccc2Cl)cn1CC(=O)c1ccc(Br)cc1 | -11.7
30 | O=C(Cc1cccs1)Nc1ccc(Br)cc1C(=O)O | 1.1
31 | COc1ccc(NC2=CC(c3ccc(OC)cc3)N(c3ccc(OC)cc3)C2=O)cc1 (stereo unspecified) | 0.1
32 | COCCNC(=O)Cc1ccc(OC)c(OC)c1 | -1.5
33 | CC(C)(C)C1CCc2c(sc3c2c(=O)n(Cc2ccccc2)c2n[nH]c(=S)n32)C1 (stereo unspecified) | -4.7
34 | O=C(CN1C(=O)/C(=C/c2ccccc2Cl)SC1=S)Nc1nccs1 | -0.2
35 | COc1ccc(-c2cc(-c3ccccc3)nc(N/N=C/c3ccc(O)cc3O)n2)cc1OC | -1.2
36 | COc1cc(/C=C2/SC(=S)N(Cc3ccccc3)C2=O)cc(Cl)c1OCc1ccccc1 | 12.4
37 | C=CCOc1ccc(/C=C2\C(=O)C(C(=O)OC)=C(C)N2c2ccc(C)cc2)cc1 | -24.7
38 | C=CCNC(=O)/C=C/c1cc(OC)ccc1OC | -9
39 | Cc1ccccc1C(=O)NN1C(=O)/C(=C\c2cccs2)SC1=S | -5.1
40 | O=[N+]([O-])c1ccc(-n2ncnc2-c2ccccc2)cc1 | 5.3
41 | O=C1C=C(NCCN2CCOCC2)CC(c2ccccc2)C1 (stereo unspecified) | 8.5
42 | COCCNC(=O)c1ccc(I)cc1 | 11.3
43 | CCC(=O)NCCN=Cc1ccc(Cl)cc1Cl | 7.9
44 | CCCCN(CC(O)COc1cccc(OC)c1)S(=O)(=O)O (stereo unspecified) | 1.3
45 | Cc1ccc(C(=O)N2CCN(c3ccccn3)CC2)cc1 | -2.9
46 | O=c1[nH]c2ccccc2cc1/C=N\Nc1nc(-c2ccccc2)c2cc(Cl)ccc2n1 | 13.7
47 | Fc1ccc(-c2nc(Cc3ccccc3Cl)no2)cc1 | 7.1
48 | O=C(COc1ccccc1)NNC(=O)COc1ccc([N+](=O)[O-])cc1 | 7.9

Row | Structure (SMILES) | displacement [%]
49 | Cc1ccc(-c2nc3sccn3c2NC(=O)c2ccc(Cl)cc2)cc1 | 7.3
50 | CCN(CC)c1ccc(/C=N\N2CCN(c3ccccc3)CC2)c(O)c1 | 25.3
51 | O=C(NCc1ccccc1)c1ccc(C#Cc2ccccc2)cc1 | -9.5
52 | CCOC(=O)C1=CN(c2ccc(C)c(C)c2)C=C(C(=O)OCC)C1c1cccc(OC)c1 | 9.4
53 | N#Cc1c(N)nc2c(c1-c1ccccc1)CCCC2 | 0.2
54 | CCN(CC)c1ccc(C=C(C(C)=O)C(C)=O)c(OC(C)=O)c1 | 48.6
55 | COC(C#CC(C)(C)N(C)C)(c1ccccc1)c1ccccc1 | -5
56 | Cc1cc(NC(=O)c2ccc(Cl)cc2Cl)ccc1NC(=O)c1ccccc1 | -2.3
57 | CC(=O)Nc1ccc(S(=O)(=O)NCc2ccccc2)cc1 | -2.4
58 | Cc1cccc(NC(=S)NC(=O)C(C)(C)C)c1C | 7.2
59 | O=S(=O)(Nc1ccc2c(c1)OCO2)c1ccccc1 | 10.5
60 | O=C(CSC1=NCCS1)c1ccc(Cl)cc1 | -48.1
61 | CCOC(=O)c1ccc(-c2ccc(C(=O)Nc3cccnc3)o2)cc1 | -5.2
62 | O=C1N=C(N=Nc2c(O)[nH]c3ccccc23)S/C1=C/c1ccc(Br)cc1 | 8.9
63 | C=CCc1cccc2cc(C(=O)NNC(=O)c3ccc(OC)cc3)c(=O)oc12 | -8.4
64 | COc1ccc(/C=C/C(=O)Nc2nc(-c3ccccc3)cs2)cc1OC | 11.7
65 | COc1ccc(CNC(=O)C(=O)Nc2cccc(Cl)c2)cc1 | 16.4
66 | COc1ccccc1NC(=O)C1=C(C)NC(SCC(=O)Nc2ccc(Br)cc2)=C(C#N)C1c1ccco1 (stereo unspecified) | 4.8
67 | CCOCCOC(=O)c1ccc(NC(=O)c2cc(OC)c(OC)c(OC)c2Br)cc1 | -6
68 | O=C(Nc1nc(-c2ccc(Cl)cc2)cs1)C1CC2CCC1C2 (stereo unspecified) | 9.3
69 | Cc1oc2ccc(O)c(CN(C)C)c2c1C(C)O (stereo unspecified) | 10
70 | Cc1onc(-c2ccccc2Cl)c1C(=O)Nc1sc(C)c(C)c1C(=O)OC(C)C | -6.3
71 | Cc1cc(N2CCN(C/C=C/c3ccccc3)CC2)n2c(nc3ccccc32)c1C#N | 29.5
